# Measured values: the supplement of paper PMC11417369
# Some of the results follow.
# Test system: PF3D7_0420300 AP2 domain 1 (GST-tagged)
# Experiment: gcPBM binding intensity (ln(normalized median fluorescence intensity)); higher = stronger DNA binding
# Procedure, shortened: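 DNA-binding domains from P. falciparum, fused to GST and produced in E. coli, were put on an Agilent 4 × 180k double-stranded probe array for 1 h in 1× PBS holding 1% milk, 0.2 mg/ml BSA, 0.5% salmon testes DNA and 0.03% Triton X-100. Probes were primer-extended, 36 bp long and drawn from intergenic genomic regions, with negative controls included. After Alexa488 anti-GST antibody detection and a 488 nm scan, binding intensity was set as the highest Masliner-normalised natural-log median intensity across replicate spots of either probe orientation.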
row,Sequence,gcPBM binding intensity (ln)
1,TTTAAAATAACCAAAAACAAAAAGAAACACAAATGT [GTGCAC_negctrl_site705],9.8
2,TTTCAAATGGAATGTGTGCACATAAATGTAAATAAA,9.49
3,GATCAAATAGAAAATACATGCAATGTGTGAAATAAC [TGCATGCA_site835],9.74
4,AAAAAAAAAATTTACTGTACACATTTGGGATACTCA [XGTACX_site5191],8.98
5,CTTATTTAATGTATCACACACGAGAATAAAAAATAA [CACACA_site3020],9.43
6,TATAAGTTGATATATACACACATATATAAATATGTA [CACACA_site7526],9.31
7,TATTTATAAAAATATACACACATACAAATATGCATA [CACACA_site4555],9.44
8,ATGGTTTTCAGAAAAACATGCATACAATAATAAAAA [TGCATGCA_site815],9
9,AATTAATATATAAATAATAAAAAAAAATATATAAAC [XGTACX_negctrl_site280],9.5
10,GAACGAAATAAGTGTGTGCACATGTAACCACAAATC [GTGCAC_site9829],10
11,CAATATTTTCATAGATGTACTTTGGACTTATTATAT [XGTACX_site4849],9.05
12,TAAATAAAAGATACGAGTACGTATGATGTTAACCTC [XGTACX_site8840],9.42
13,GTATATAGTATGTAGAGTACTAATTTCCATATGTTC [XGTACX_site7816],9.25
14,ATTTATATATAGGTGTGTCCACAAATAGTATGTAAA [XGTACX_site2916],9.36
15,ATTTGTATATACATATGTACACATGTAGGCTCATAA [XGTACX_site1709],9.19
16,TTTCGTAAACTTTATGCACACACATATACATATTTC [CACACA_site8146],9.8
17,TTTGAATACTGAATGGTGCAAATTGTTCTCCCCATG,9.04
18,AGTATAACTTTTGCGCGTACACACATTTATCCTCTT [XGTACX_site429],9.9
19,TATATTAAAATAATCACACACATCAATTAATGGTAA [CACACA_site1234],9.44
20,TATAATAATATTTACACACGCATATGTTATATATAT [CACACA_site1477],9.52
21,TGTATATGGTTTGTGCAAAAATTTATTAATGTGTAA [TGCATGCA_negctrl_site374],9.26
22,TACAAATGCGTATGTCAATATATGGAGAAATAAATA [TGCATGCA_negctrl_site290],9.16
23,GTTATAATTGAACTAGTGCATAAATATATTTTAATT [GTGCAC_site9851],9.17

row,Sequence,gcPBM binding intensity (ln)
1,AATTCTGGCAAAATAACACACACATATATTTTATAT [CACACA_site9064],9.71
2,TATCTTTTTTTTAATACACACAAATATATGAAAGTA [CACACA_site4161],9.29
3,ATATAAACACTGAATGCATGCACATATATATATATA [TGCATGCA_site940],9.74
4,ATAAAGGAATTTTATACACACAACATATATATATAT [CACACA_site2861],9.57
5,TTTTTTTTTACTAACTGTACTAAAGAAAAAAAAGGG [XGTACX_site3519],9.04
6,ATGTGTATATGTGTGGGTACTTAATTTTTTTCTTTA [XGTACX_site5351],9.53
7,CGTATTATTATATAAACACACAAGGGGGCATGTATA [CACACA_site745],9.96
8,AAAAAAAAAAAAAAAAGTACATATAATAAATAATGA [XGTACX_site7931],9.27
9,TATATCTTAATATTTACACACATGCGCACCCATAAA [CACACA_site5349],9.64
10,AATCTTTGTAATAAAAGTACATTAATTTTATTAATA [XGTACX_site8325],8.93
11,ACACATACAACGTGGTGTACAAATAATTATAATCAA [XGTACX_site2287],9.24
12,TAAGTATATATATTTACACACATTTGTTTTTTTTTA [CACACA_site3784],9.59
13,TTTTAAATACTTTATTGTACATTATATATATATATA [XGTACX_site7021],9.25
14,TGAAAAATATAAGGTTGTACTTACATCGGGAATAAT [XGTACX_site4701],9.45
15,AATTATGTGTGTCAATGTACACGATTTACATAATAT [XGTACX_site5150],9.49
16,AATATATGGTTTCTTGATATTAAATTCAATTTAATG [CACACA_negctrl_site69],9.19
17,ATCCGTGGGTGAAATACACACATGATAATGTGAATG [CACACA_site4662],9.34
18,ATAAATGAACAAGTGGCACACACACCGTATAACTAA [CACACA_site9047],9.82
19,TATTTTTAATTTTTTAATGGTTTAATATTTTTATAT [CACACA_negctrl_site1186],9.19
20,TGGTATGCAATATTGGTGCGTATATATTTTAAAGGG,9.2
21,TATTCTAAGATAAGTGGTACTTATATATAATATATA [XGTACX_site8316],9.16
22,TCTTTAGCTTCTTCTTTTTTTTTTTTTTTTTTTTTT [XGTACX_negctrl_site518],9.22
23,ATATATATATATATATGTACATAAACATATATATAT [XGTACX_site1064],9.12

row,Sequence,gcPBM binding intensity (ln)
1,CATATGTTATATGTAGTGCATTACTATAGGATTTAT [GTGCAC_site9860],9.23
2,TATTTTGCAAAATGTGCATGTTGTGTATTATGTGAC [TGCATGCA_site59],9.54
3,ATTATAATATATATATGTACATATATATATAATACT [XGTACX_site5092],9.17
4,GTATAATTGGAAATTACACACCTTAGAATGTAACAT [CACACA_site4059],9.31
5,ATATATAATATTGGTGGTACAAGGGTATTTTATATT [XGTACX_site8215],9.41
6,TATAATATACTATGTGGTACATATATATATTTATAG [XGTACX_site4556],9.13
7,TCATTTATTTTTCTTTGTACACAAAAGTTTTTATGT [XGTACX_site690],9.41
8,ATATATATTTTATATTGTACTTATTATTTTTAGGGC [XGTACX_site723],9.03
9,AGGATATATATATTCACACACACATGGAAATATATA [CACACA_site383],9.86
10,TATGAATATCTATACACACACATATAAATACACGCT [CACACA_site6853],9.92
11,AAAAAACAAATAAGTAAACACACATATATAATATAT [CACACA_site8830],9.85
12,CTAATTGTTATTTTGTGTACTTATCATTCGAAATAT [XGTACX_site7963],9.31
13,TAGATGTAAGTACATACACACATATATAAATAAATA [CACACA_site8528],9.49
14,ATATATATTTTAATTACACACAAAAAAAAAAAAAAA [CACACA_site4778],9.11
15,AAAAAAAAAAAAAATACACACATATTTTATAGGGGA [CACACA_site3261],9.49
16,TATTTTTTGAAAAGTTCACACATCCAACTCGAGTTG [CACACA_site4412],9.06
17,AAAATAATGAAATGAAAAAAAAAAATTTAGATTCTA [CACACA_negctrl_site1385],9.07
18,TTATATATTTTTAGGTGTACTTTTTTTTTTTTTTTT [XGTACX_site8164],9.33
19,GTCATATATTTATGTACACACATATATATATTTATA [CACACA_site4911],9.55
20,TATATATAAAAAAAAAGTACATATAATATAATATTT [XGTACX_site7902],9.34
21,GGTGTTTTTCACAGATGTACACAAATAAAAAAGAAA [XGTACX_site4454],9.21
22,AAATGGACAGTATAAAAATGGAGAATATAAAAATTT [CACACA_negctrl_site889],9.46
23,AAAAAAAAAAAAAATAAATAAATAAATAAATATATA [GTGCAC_negctrl_site382],9.04

row,Sequence,gcPBM binding intensity (ln)
1,CCTTTTTATTTTTGTAGTACTACATATACATATCTG [XGTACX_site7791],9.43
2,ATATTAAAAAAATATAAACACACAAAAAAAAAATAT [CACACA_site8283],9.94
3,TATTCAAAGAAAAACTGTACGTGTAGCAAACGTCAT [XGTACX_site7713],9.22
4,TTTTTATAACAGCTTAGTACATATAAGAATTCTTGC [XGTACX_site5890],8.9
5,GACCCCATATACATATGTACATACATAATATATATA [XGTACX_site1817],9.57
6,TTTGTTGGTATGGTTACACACATTTAGGAAATAAAA [CACACA_site1411],9.32
7,TCTTATAAATTAAATATAAAAAAAAAAAAAAAAAAA [XGTACX_negctrl_site77],8.41
8,AGTATTTTGTTTATCACACATATTGGAATTTTCAAT [CACACA_site4686],9.35
9,AAAATAATTCAATGTAGTACAATACAAATTGAGAGA [XGTACX_site5991],9.34
10,AAAATTATACACACACGTACATATAAATAGAAATAT [XGTACX_site1753],9.96
11,TTCAAAAAATATATCTGTACAAATTATGTAGATGAA [XGTACX_site5522],9.04
12,TTTTTTTTTTTTTTTTTTTTACGATATATTTTAAAA [XGTACX_negctrl_site401],8.37
13,TAGATCATAACAATTGCACACATTTGCATTTATATT [CACACA_site1562],9.45
14,TTTTTACTTATTTATTATGTACAATTTCTTCTTTCT [CACACA_negctrl_site264],9.33
15,AATGTACGCATATACACACACATAAATAGATACGTA [CACACA_site3406],9.7
16,AACGAAAACACTACGTGTACCAAACGTCCTACCAAC [XGTACX_site257],9.54
17,AATAGTTAAATACATACATGCATTCATATAATATAT [TGCATGCA_site433],9.27
18,AAGATAAAAATATGCACACATATATATATATATATA [CACACA_site404],9.22
19,TAATTAAGAATATATAGTACATAGTTGAAAAACTTT [XGTACX_site6359],9.1
20,ATATTCTCTTAAATATGTACGTATGTATATATATAT [XGTACX_site5885],9.16
